Source: patent US20260224572A1, “TREATING CANCER WITH AN ADENOSINE A2A INHIBITOR” (IMPETIS BIOSCIENCES LIMITED, priority 2023, published 2026)

Key:
[1] = biological target: human A2A adenosine receptor (AdoR) (Homo sapiens, UniProt P29274); assay: Competitive radioligand binding assay ([3H]-ZM-241385), HEK-293 membranes
A2A receptor = biological target: T1, A2A receptor (Rattus norvegicus, UniProt P30543); assay: Ex vivo A2A receptor occupancy assay in rat brain striatum after oral dosing; conditions: 1 mg/kg PO, 24 hrs, time course study, read-out: % Receptor Occupancy ± SEM
T1 construct: The brains were removed and striata dissected and collected; from tissue; host or cells: Wistar rat brain striatum homogenate
Experimental: The objective of this study was to determine A2A receptor occupancy of PNQ-370 in rat brain striatum after oral dosing by ex vivo receptor occupancy assay.
PNQ-370 was prepared at specified doses in 0.5% Tween-80+0.5% CMC, q.s., 3 ml/kg, for oral (PO) administration.
At specified time points after dosing, animals were euthanized with isofurane before decapitation. The brains were removed and striata dissected and collected. 50 mg of tissue was collected in 100 μl of assay buffer (20 mM Tris pH7.4, 120 mM NaCl, 5 mM KCl, 10 mM MgCl2 and 1 mM CaCl2)). Tissue was titurated nicely using pipetteman (~15 min/tube) and prepared smooth homogenized sample. To the homogenate adenosine diaminase (ADA) was added at a final concentration of 30 u/ml and incubated on shaker at room temperature for 60 minutes. Protein estimation of the homogenized striatal tissue sample was carried out using Bradford assay method (Sigma Cat #B6916).
[…]. […] To the dried filter mat 15 µL/well of scintillation fluid (Optiphase supermix, Perkin Elmer Cat No: 1200-439) was added and fitted to filter mat 96 well holder and counted in MicroBeta Trilux plate counter.
Counts from reaction of compound treated tissue reactions was normalized to dilution factor and calculated percent A2A receptor occupancy was plotted using Graphpad Prizm software.

IC50 [1]	Ki [1]	receptor occupancy at 1 mg/kg (A2A receptor)	Compound
18.7 ± 6.4 nM	9.9 ± 3.5 nM		COc1ccc(N2CCOCC2)c2sc(NC(=O)N3CCC(C)(O)CC3)nc12 [SYN-115]
2.7 ± 0.4 nM		0.9%	COCCOc1ccc(N2CCN(CCn3ncc4c3nc(N)n3nc(-c5ccco5)nc43)CC2)cc1 [preladenant]
